Data taken from PubChem BioAssay AID485297 (National Center for Advancing Translational Sciences (NCATS), 2010).
About 9,100 (2.8%) of roughly 320,000 compounds were called active. This list was built around the results that the source calls inconclusive (neither active nor inactive); the mix of calls is not that of the screen. Calls come from the whole dose curve; as a rule, active = well fitted activation curve with a large enough effect; inconclusive = small, poorly fitted or top-dose-only effect; inactive = no such curve, though single readings can be large or run the other way. Potencies of inconclusive entries are doubtful fits and often do not repeat.

Test: qHTS Assay for Rab9 Promoter Activators; note: nearly all actives have a fitted effect of over 60% in size
Details: Huh7 Rab9 promoter-luciferase reporter, luminescence, 24 h; series mostly up to 9.22 µM
Method in brief: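 Steps: seed 1500 Huh7 Rab9-luc cells per well, rest 2 h at 37 °C; add compound in DMSO; incubate 24 h; add luciferase reagent, 10 min ambient; read luminescence.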
Potency is the fitted concentration of half-maximal effect; tags give direction and shape of the fitted curve.

Potency, inactive:
CCCCc1cc2ccccc2c(OCCN(C)C)n1, COC(=O)CN=Cc1c(C)[nH]n(-c2ccccc2)c1=O, COc1ccc(Cl)cc1NC(=O)CN(C)CC(=O)Nc1cc(OC)c(OC)c(OC)c1, CCOC(=O)c1cc(-c2cccc(C(F)(F)F)c2)nc2nc(SC)[nH]c(=O)c12, Cc1nc(NC(=O)c2cccnc2)ccc1Br, COCCN1CC(C(=O)NCCc2nc(C)c(C)s2)CCC1=O (stereo unspecified), CCOc1ccc(CNC(=O)c2cccc(NC(=O)C3=C(C)OCCS3)c2)cc1, CC1CCCC(NC(=O)C2CCN(S(=O)(=O)c3cccc4nonc34)CC2)C1C (stereo unspecified), Cc1cccc(N2CCN(CC(O)COCc3cccs3)CC2)c1C (stereo unspecified), CC1(C(=O)Oc2ccccc2)Cc2ccccc2C(=O)O1 (stereo unspecified), CC(=O)NC(Cc1ccc(F)cc1)C(=O)NC1CCN(C(=O)NCc2ccccc2)CC1 (stereo unspecified), Cc1ccc(OCC(=O)N/N=C\c2ccc(O)c([N+](=O)[O-])c2)c([N+](=O)[O-])c1

Potency, inconclusive:
CCN1CCc2nc(NC(=O)c3ccc4c(c3)OCCO4)sc2C1 2.51 µM [activator, partial curve], O=[N+]([O-])c1ccc(/C=N/Nc2ccccn2)cc1 3.16 µM [activator, single point], Cc1ccnc(NC(=O)CCC2CCCCC2)c1 3.55 µM [activator, partial curve], CN(C)c1ccnc2sc(C(=O)c3ccc(Br)cc3)c(N)c12 2.82 µM [activator, partial curve], Cc1cc2cc(NC(=O)c3ccco3)ccc2[nH]1 3.55 µM [activator, partial curve], NC(=O)C1CCCN(C(=O)c2ccc(-c3cccc(Cl)c3Cl)o2)C1 (stereo unspecified) 3.16 µM [activator, single point], COc1ccccc1OCc1ccc(C(=O)Nc2ccccc2F)cc1 2.51 µM [activator, partial curve], CCc1nnc(NC(=O)CC(=O)Nc2ccccc2C(=O)O)s1 1.58 µM [activator, partial curve], CCCCCC(=O)N/N=C/c1ccc(N(C)C)cc1 5.62 µM [activator, single point], Cc1c(N/C=C(\Cl)C(=O)C(F)(F)F)c(=O)n(-c2ccccc2)n1C 6.31 µM [activator, single point], CC(C)NCc1cc(Br)ccc1OCc1ccccc1 1.26 µM [activator, single point], CCOC(=O)CNC(=O)c1sc(NC(=O)c2ccccc2F)nc1C 1.41 µM [activator, partial curve], C=CCn1c(NC(=O)c2ccc(C)cc2)nc2ccccc21 5.01 µM [activator, single point], CN(C)c1ccc(CN(C(=O)c2cc3ccccc3oc2=O)C2CCS(=O)(=O)C2)cc1 (stereo unspecified) 3.98 µM [activator, partial curve], CCn1c(/C=C2\C(=O)N(C(C)C)c3ccccc32)nc2ccccc2c1=O 1 µM [activator, single point], C/C(=C\C(=O)c1ccccc1)Nc1ccc(N2CCOCC2)cc1 2.82 µM [activator, partial curve], Cc1nc2ccc(-c3nc4ccc(N)cc4[nH]3)cc2[nH]1 3.55 µM [activator, partial curve], COc1ccccc1C(=O)C1CCCN(C(=O)Nc2ccccc2F)C1 (stereo unspecified) 3.16 µM [activator, single point], COc1cc(C)ccc1OCc1cc(C(=O)N2CCN(C)C[C@@H]2c2ccccc2)no1 6.31 µM [activator, single point], O=C(Nc1ccc2c(c1)OCCO2)c1cc2sccc2n1Cc1ccccc1 5.62 µM [activator, single point], CCOc1ccc(C(=O)COC(=O)c2cccc(-n3cnnn3)c2)cc1 4.47 µM [activator, partial curve], O=C(Nc1cccc(-c2ccc(N3CCOCC3)nn2)c1)c1ccccc1 3.55 µM [activator, partial curve], Cc1ccc(S(=O)(=O)/N=C(/NNC(=O)c2cccc(Cl)c2)c2ccccc2)cc1 3.16 µM [activator, partial curve], Nn1c(CSc2ccccn2)nc2ccccc2c1=O 3.16 µM [activator, partial curve], COc1ccccc1OCc1nc2ccccc2s1 6.31 µM [activator, single point]

Potency, active:
S=C(c1ccc(-c2cccc(Cl)c2)o1)N1CCOCC1 3.55 µM, Nc1nc2nn(-c3ccccc3)nc2c(=O)[nH]1 2.82 µM, Cc1cc(C)c2c(N)c(C(=O)N/N=C/c3cccs3)sc2n1 1.58 µM, O=C(N/N=C/c1cccs1)c1c[nH]c2ccccc12 2.82 µM, COCCn1c(C)cc(C(=O)CSc2nc3ccccc3c(=O)n2Cc2ccco2)c1C 1.26 µM, O=C(NC(=S)Nc1ccc(N2CCCCC2)cc1)c1cccs1 2.24 µM, Cc1ccc(/C=C/C(=O)Nc2nccs2)o1 1.78 µM, O=C(CSc1nnc(-c2cccs2)o1)c1cccs1 2.82 µM, Cc1ccc(-n2ncc(N(C)C)c(Cl)c2=O)cc1 1.12 µM, CC(/C=N/Nc1nc2ccccc2[nH]1)=C\c1ccccc1 0.398 µM, CCCNC(=O)c1cc(-c2ccc3c(c2)OCO3)on1 0.562 µM, O=c1c2c(nc3cc(-c4ccc(F)cc4)[nH]n13)CCC2 3.16 µM, Cc1[nH]nc(Nc2ccc(Br)cc2)c1[N+](=O)[O-] 3.16 µM, O=C(COc1ccccc1)Nc1nc2ccccc2[nH]1 3.55 µM
